{"source": "PubChem BioAssay AID1346428", "about": "(National Center for Advancing Translational Sciences (NCATS), 2018)", "note": "Where “and” joins values, the source holds several entries; their conditions need not be identical. Equal values may be shown once. Among all 48,000 compounds or so, about 1,200 (2.5%) were called active. Not shown: some 2% with an inconclusive outcome.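 The calls were made as follows: active = activation of at least 60% and not above a set upper limit (about 1 call in 100 departs from these limits); inconclusive = activation of 40% to 60%, or above that upper limit; inactive = activation under 40%.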 This is one part of the list."}
{"molecular_target": "Probable G-protein coupled receptor 32 (Homo sapiens) (UniProt O75388)", "sequence (O75388 whole entry, looked up)": "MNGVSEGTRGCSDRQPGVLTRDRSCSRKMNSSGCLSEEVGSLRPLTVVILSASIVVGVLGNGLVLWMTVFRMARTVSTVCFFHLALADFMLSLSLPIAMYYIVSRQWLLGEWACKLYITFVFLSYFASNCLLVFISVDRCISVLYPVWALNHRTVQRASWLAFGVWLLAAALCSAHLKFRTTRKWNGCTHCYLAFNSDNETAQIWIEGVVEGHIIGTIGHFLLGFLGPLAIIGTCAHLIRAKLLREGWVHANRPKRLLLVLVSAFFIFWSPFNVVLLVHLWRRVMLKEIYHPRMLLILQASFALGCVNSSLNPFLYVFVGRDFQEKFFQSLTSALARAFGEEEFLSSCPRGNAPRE", "test": "qHTS for Agonists of Human Resolvin D1 Receptor DRV1; also: 0% is about no effect", "settings": "CHO-K1 GPR32 beta-arrestin PathHunter luminescence, 90 min; at 76.9 µM; hits give high values; zero percent set by DMSO-only wells", "outline": "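Cells are plated overnight, treated with compounds in DMSO for 90 minutes at 37 °C, and developed with PathHunter detection reagent for 1 hour before luminescence is read; signal reflects beta-arrestin binding to GPR32 in engineered CHO-K1 cells.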"}
{"smiles": "O=C(NCc1ccc(Cl)cc1)c1cnc2sc(N3CCCCCC3)nn2c1=O", "activation": "inactive: -3.86%"}
{"smiles": "CCCOc1ccc(-c2cccc(NS(=O)(=O)c3cc(OC)ccc3OC)c2)nn1", "activation": "inactive: -0.795%"}
{"smiles": "O=C(CCC(=O)N1Cc2ccccc2Oc2ncccc21)NCc1ccccc1Cl", "activation": "inactive: -4.84%"}
{"smiles": "COc1ccc(Cl)cc1NC(=O)C1CCN(c2ncnc3c2nc2n3CCCCC2)CC1", "activation": "inactive: -2.22%"}
{"smiles": "CCN(CC)c1ccc(NC(=O)c2cnn3c(C(F)F)cc(-c4ccccc4)nc23)cc1", "activation": "inactive: -27.1%"}
{"smiles": "COc1ccc(C(c2c(O)cc(C)n(Cc3ccco3)c2=O)N2CCN(c3ccccc3)CC2)cc1", "note": "(stereo not given)", "activation": "inactive: -11.3%"}
{"smiles": "CCC(=O)N1CCc2cc(S(=O)(=O)CCC(=O)N3CCN(c4ccccc4F)CC3)ccc21", "activation": "inactive: -4.4%"}
{"smiles": "Cc1ccc(CNC(=O)c2cc3sccc3n2Cc2ccc(F)cc2)cc1", "activation": "inactive: -2.77%"}
{"smiles": "CN1CCN(C(CNC(=O)C(=O)Nc2ccc(F)cc2)c2cccnc2)CC1", "note": "(stereo not given)", "activation": "inactive: 0.807%"}
{"smiles": "Cc1cc2oc(C(=O)Nc3nc(-c4ccccc4)ns3)c(C)c2cc1Cl", "activation": "inactive: -9.07%"}
{"smiles": "CCOc1ccc(CNC(=O)c2sc3nc(C)cc(C)c3c2-n2cccc2)cc1", "activation": "inactive: 8.49%"}
{"smiles": "Cc1ccc(NC(=O)CN2C(=O)CCc3cc(S(=O)(=O)N4CCOCC4)ccc32)c(C)c1", "activation": "inactive: 0.249%"}
{"smiles": "CN1CCN(CCCN2c3ccccc3Sc3ccc(Cl)cc32)CC1", "activation": "inactive: 26.2% and inactive: 2.46%"}
{"smiles": "Cc1ccc(C)c(Cn2nnc(C(=O)NCc3ccccc3)c2N)c1", "activation": "inactive: 9.77%"}
{"smiles": "CCC(CC)C(=O)N1CCc2cc(OC)c(OC)cc2C1COc1ccccc1OC", "note": "(stereo not given)", "activation": "inactive: 8.37%"}
{"smiles": "CC(=O)c1ccc(NS(=O)(=O)c2ccc3[nH]c4c(c3c2)CCCCCC4)cc1", "activation": "active: 72.7%"}
{"smiles": "Cc1nc2cc(-c3cccc(F)c3)nn2c(C)c1CCC(=O)NC1CCCCC1", "activation": "inactive: 4.49%"}
{"smiles": "CCOc1ccc(NC(=O)CSc2nnc(NC(=O)Nc3ccccc3)s2)cc1", "activation": "inactive: 5.06%"}
{"smiles": "CCOc1ccc(-c2nonc2NC(=O)COc2ccc(C)c(C)c2)cc1OCC", "activation": "inactive: 12.8%"}
{"smiles": "O=C(c1ccc2c(c1)N(Cc1cccc(Cl)c1)C(=O)c1ccccc1S2(=O)=O)N1CCN(c2cccc(C(F)(F)F)c2)CC1", "activation": "inactive: -21%"}
{"smiles": "COc1ccc(-c2nn(C)c3sc(C(=O)N4CCN(c5cc(Cl)ccc5C)CC4)cc23)cc1OC", "activation": "inactive: 14.3%"}
{"smiles": "COc1ccc(C(=O)CCC(=O)Nc2cccc(C(C)=O)c2)cc1", "activation": "inactive: 5.81%"}
{"smiles": "COc1ccc(CCNC(=O)Cn2c(=O)c3cccn3c3ccc(F)cc32)cc1OC", "activation": "inactive: -16.7%"}
{"smiles": "CCOc1ccc(-c2cnc(NCc3cccc(Cl)c3)n2C)cc1", "activation": "inactive: -6.79%"}
{"smiles": "N=c1c[n+](N2CCOCC2)[n-]o1", "activation": "inactive: 11.9%"}
{"smiles": "Cc1ccc(Cn2c(=O)n(Cc3ccc(Cl)cc3)c(=O)c3cccnc32)cc1", "activation": "inactive: -8.53%"}
{"smiles": "CCOc1ccc(Nc2oc(/C=C/c3ccc(F)cc3)nc2C#N)cc1", "activation": "inactive: 0.997%"}
{"smiles": "COc1ccc(CNc2nc3c(S(=O)(=O)c4ccccc4)nnn3c3ccc(Cl)cc23)cc1", "activation": "inactive: -10.5%"}
{"smiles": "COc1ccc(NC(=O)c2oc3c(c2C)-c2nn(Cc4c(F)cccc4Cl)cc2CC3)c(OC)c1", "activation": "inactive: -18%"}
{"smiles": "Cc1ccc(OCC(=O)Nc2ccc(C(=O)OCc3cc(=O)n4nc(C5CC5)sc4n3)cc2)cc1", "activation": "inactive: -9.07%"}
{"smiles": "Cc1ccc(NC(=O)C(=O)NCC(c2cccnc2)N2CCN(C)CC2)cc1C", "note": "(stereo not given)", "activation": "inactive: -1.32%"}
{"smiles": "Cc1cc(C)c2c(CC(=O)Nc3nnc(C(C)C)s3)coc2c1", "activation": "active: 65.2%"}
{"smiles": "Fc1ccccc1CNCCCSc1nnnn1-c1ccccc1", "activation": "inactive: 23.1%"}
{"smiles": "O=C(CSc1nc(=O)[nH]c2c1CCCC2)Nc1cc(C(F)(F)F)ccc1Cl", "activation": "inactive: -7.23%"}
{"smiles": "COc1ccc(-c2nnc(Nc3ccc(OCC(N)=O)cc3)c3ccccc23)cc1", "activation": "inactive: 9.64%"}
{"smiles": "O=C1CCSC2(C(=O)N(Cc3ccc(F)cc3)c3ccccc32)N1c1ccccc1", "note": "(stereo not given)", "activation": "inactive: -20.1%"}
{"smiles": "Cc1cc(C)n(-c2nc3ccccc3nc2Nc2cccc(C(F)(F)F)c2)n1", "activation": "inactive: 7.13%"}
{"smiles": "COc1ccc(OC)c(-c2nc(Nc3ccccc3C)sc2CC(=O)O)c1", "activation": "inactive: -34%"}
{"smiles": "CCOC(=O)c1ccccc1NC(=O)CSc1ccc(-c2sc(-c3ccccc3)nc2C)nn1", "activation": "inactive: -11%"}
{"smiles": "COc1cccc(C(=O)Nc2ccccc2C(=O)OCc2cc(=O)n3nc(C)sc3n2)c1", "activation": "inactive: -7.69%"}
{"smiles": "CC(C)c1ccc(NC(=O)C2CCCN(S(=O)(=O)c3ccc(Br)s3)C2)cc1", "note": "(stereo not given)", "activation": "inactive: -5.94%"}
{"smiles": "CC(C)CCNC(=O)CN1C(=O)COc2ccc(S(=O)(=O)N3CCOCC3)cc21", "activation": "inactive: -3.67%"}
{"smiles": "COc1ccc(NC(=O)C(=O)NCCc2ccccc2)cc1OC", "activation": "inactive: 5.01%"}
{"smiles": "COc1ccc(-n2cc(-c3ccccc3)c3c(SC(C)C(C)=O)ncnc32)cc1", "note": "(stereo not given)", "activation": "active: 99.3%"}
{"smiles": "CCOC(=O)c1cccc(NC(=O)c2cc3c(Cl)nc4ccc(C)cc4c3s2)c1", "activation": "inactive: -6.39%"}
{"smiles": "COc1cc(OC)c(OC)cc1CN1CCc2nc(N3CCN(c4ncccn4)CC3)ncc2C1", "activation": "inactive: 22.9%"}
{"smiles": "Fc1ccc(-c2cc(-c3nc(-c4cccc(Cl)c4)no3)[nH]n2)cc1", "activation": "inactive: -0.463%"}
{"smiles": "CCc1ccc(CNC(=O)c2ccc3c(c2)nc2n3CCOC2)cc1", "activation": "inactive: -5.91%"}
{"smiles": "CC1CCC(NC(=O)c2ccc3c(c2)N(Cc2cccc(F)c2)C(=O)c2ccccc2S3)CC1", "note": "(stereo not given)", "activation": "inactive: -6.38%"}
{"smiles": "Cc1ccc(C)c(NC(=O)C(C)n2c(=O)cc(C(F)(F)F)c3c(C)nn(C)c32)c1", "note": "(stereo not given)", "activation": "inactive: 2.28%"}
{"smiles": "CCc1nnc(SCc2ccc(F)cc2Cl)c2cc3sccc3n12", "activation": "inactive: -15.5%"}
{"smiles": "CCN1CCN(C(=O)c2ccc3c(c2)N(Cc2cccc(Cl)c2)C(=O)c2ccccc2S3(=O)=O)CC1", "activation": "inactive: -17.4%"}
{"smiles": "COc1ccc(-c2noc(C3CC(=O)N(c4ccc(C)c(F)c4)C3)n2)c(OC)c1", "note": "(stereo not given)", "activation": "inactive: 29.5%"}
{"smiles": "COc1ccccc1CNC(=O)CSc1ncc2c(n1)-c1ccccc1N(Cc1ccc(C)cc1)S2(=O)=O", "activation": "inactive: -0.614%"}
{"smiles": "COc1ccc(OC)c(NC(=O)C2CCN(S(=O)(=O)c3ccc(C)cc3)CC2)c1", "activation": "inactive: -6.26%"}
{"smiles": "CCOC(=O)c1c(NC(=O)CSc2cn(CCNC(=O)c3ccc(OCC)cc3)c3ccccc23)sc2c1CCCC2", "activation": "inactive: -24.6%"}
{"smiles": "Cc1cccc(CC(=O)NC2CC(=O)N(c3cccc(F)c3)C2)c1", "note": "(stereo not given)", "activation": "inactive: -3.88%"}
{"smiles": "COc1cccc(N2C(=O)C(CC(=O)Nc3cccc(F)c3)N(C(C)C)C2=O)c1", "note": "(stereo not given)", "activation": "inactive: -16.9%"}
{"smiles": "Cc1cc(N2CCCCC2)nc2ccc(NC(=O)c3ccc(F)cc3)cc12", "activation": "active: 105%"}
{"smiles": "O=C(COc1ccccc1)Nc1ccc(OCc2cc(=O)n3ccsc3n2)cc1", "activation": "inactive: 1.91%"}
{"smiles": "COc1ccc(OC)c(C2CC(=O)N(c3cccc(C)c3)C3=C2C(=O)OC3)c1", "note": "(stereo not given)", "activation": "inactive: -8.98%"}
{"smiles": "CCOc1ccc(C(=O)Nc2ccc(S(=O)(=O)N(Cc3ccccc3)c3ccccc3)cc2)cc1", "activation": "inactive: -3.92%"}
{"smiles": "COCCNC(=O)CSc1nc(-c2ccc(F)cc2)[nH]c1-c1ccc(Cl)cc1", "activation": "inactive: -22.2%"}
{"smiles": "CC(CNC(=O)Cn1ncc2c3ccccc3n(Cc3cccc(Cl)c3)c2c1=O)c1ccccc1", "note": "(stereo not given)", "activation": "inactive: -12.3%"}
{"smiles": "CN(C(=O)CSc1nc2ncccc2o1)c1ccc(F)cc1", "activation": "inactive: 2.47%"}
{"smiles": "Cc1cc(F)ccc1Nc1nc2ccccc2n2nnnc12", "activation": "inactive: -21.4%"}
{"smiles": "COc1ccccc1N1CCN(S(=O)(=O)c2ccc(-c3cc(C(F)(F)F)on3)s2)CC1", "activation": "inactive: -5.84%"}
{"smiles": "CC(C)CCNC(=O)C(=O)Nc1c2c(nn1-c1ccccc1)CS(=O)(=O)C2", "activation": "inactive: -16.4%"}
{"smiles": "O=C(CSc1nc2cc3ccccc3cc2[nH]1)Nc1cccc(C(F)(F)F)c1", "activation": "active: 93.9%"}
{"smiles": "COc1cccc(CNc2ncnc3onc(-c4ccc(F)cc4)c23)c1", "activation": "inactive: 14.3%"}
{"smiles": "COCc1cc(C)nc2sc3c(c12)NC(c1ccc(NC(C)=O)cc1)N(c1ccc(C)cc1)C3=O", "note": "(stereo not given)", "activation": "inactive: -14.8%"}
{"smiles": "CCOC(=O)c1cc(OC(=O)c2cccc(C)c2)n(-c2ccccc2)n1", "activation": "inactive: 28.3%"}
{"smiles": "CCN(c1ccccc1)c1nnc(NC(=O)Nc2cccc(C(F)(F)F)c2)s1", "activation": "inactive: 5.43%"}
{"smiles": "O=c1c2ccccc2n(Cc2cccc(Cl)c2)c(=O)n1CCc1ccccc1", "activation": "inactive: -5.38%"}
{"smiles": "COc1ccc(-c2cc(C(C)=O)c(C)n2CCC(=O)Nc2cc(C)ccc2OC)cc1", "activation": "inactive: -22.3%"}
{"smiles": "Cc1ccc(C)c(N2CCN(c3ncnc4onc(C)c34)CC2)c1", "activation": "inactive: -2.02%"}
{"smiles": "COCc1cc(C)nc2sc3c(=O)n(-c4cc(C)ccc4C)nnc3c12", "activation": "inactive: -10.7%"}
{"smiles": "CCOC(=O)c1ccccc1NC(=O)N1CCN2CCCCC2C1", "note": "(stereo not given)", "activation": "inactive: -10.4%"}
{"smiles": "O=C1c2ccccc2C(=O)c2c1ccc(O)c2O", "activation": "inactive: -81.3%"}
{"smiles": "COc1cccc2cc(-c3nc4sc(C(=O)Nc5ccc(F)cc5F)c(C)c4c(=O)[nH]3)c(=O)oc12", "activation": "inactive: -5.8%"}
{"smiles": "COc1ccccc1CCNC(=O)Cc1c(C)c2ccc(O)cc2oc1=O", "activation": "inactive: 16.7%"}
{"smiles": "CC(=O)Nc1nonc1-c1nnc(SCC(=O)Nc2cc(C)ccc2C)n1-c1ccccc1", "activation": "inactive: -15.1%"}
{"smiles": "O=C1CC(c2nnc(Cc3c(F)cccc3Cl)o2)CN1c1ccccc1", "note": "(stereo not given)", "activation": "inactive: -7.15%"}
{"smiles": "Cc1ccc(Nc2c(-c3ccc(N4CCOCC4)cc3)nc3cccc(C)n23)cc1", "activation": "inactive: -6.06%"}
{"smiles": "CCOC(=O)C(O)c1ccccc1", "note": "(stereo not given)", "activation": "inactive: 7.38%"}
